Experimental data taken from patent EP1459757A1, “Immunomodulating polymers” (THE BRIGHAM AND WOMEN'S HOSPITAL, INC., priority 1999, dated 2004).
At least one peptide structure holds a part that was inferred or is arguable (an end, a ring closure or a residue). Some compounds share one wording; it may come from a single statement. Ends that are not written are not given here. Peptide text beside a SMILES is read from it.

Columns and labels:
B. fragilis NCTC 9343 = experiment: Rat model of intraabdominal sepsis, abscess formation after B. fragilis challenge; type: in vivo; conditions: B. fragilis 1 x 10^8 cfu/rat
human T cells = experiment: T cell proliferation assay (3H-thymidine uptake); type: cell-based; conditions: 20 µg/ml; 6 days post-incubation (Figure 6)
Protocol: T cell proliferation assays were performed on cells obtained from human leukopacs (discarded white cells from anonymous platelet donors). Mononuclear cells were separated by ficoll-hypaque sedimentation to eliminate red cells and polymorphonuclear leukocytes. The mononuclear layer, which consisted of T cells, B cells, and mononuclear cells, was depleted of B cells and monocytes by passage over nylon wool column. A portion of these cells was saved prior to placement on nylon wool and were used as autologous feeder cells following irradiation with 6.4 kRads with a cesium source for 4.8 min. Nylon passed cells, which were greater than 98% CD3 positive (as determined by FACS analysis) were used as responder cells or further depleted with antibodies to CD4 (OKT4) or CD8 (OKT8) followed by negative selection with magnetic beads. Finberg, RW et al. J Immunol 149:2055 (1992); Haregewoin, A et al. Nature 340:309 (1989). […] Cells were washed extensively, harvested, and the amount of radioactive uptake counted by liquid scintillation. […] Data were expressed as the average of triplicate wells ± the standard error of cpm represented. […]
Following the T cell proliferation assay of Example 2, K-D peptides (20 µg/ml) of varying size were assessed for their ability to stimulate T cell activation 6 days post-incubation. […]

[1] = Table 2, 50 µg subcutaneous at -24, 0, +24 h
[2] = Table 1 Experiment A, 5 µg subcutaneous at -24, 0, +24 h
[3] = Table 1 Experiment A, 50 µg subcutaneous at -24, 0, +24 h, six days later

NCCCC[C@H](N)C(=O)N[C@@H](CC(=O)O)C(=O)O [(K-D)1] (H-Lys-Asp-OH)
Abscess formation (%) (B. fragilis NCTC 9343; [1]): 86% | No. animals with abscess/total (B. fragilis NCTC 9343; [1]): 6/7

KDKDKDKDKD [(K-D)5]
Abscess formation (%) (B. fragilis NCTC 9343; [1]): 80% | No. animals with abscess/total (B. fragilis NCTC 9343; [1]): 8/10 | T cell activation by K-D peptides of varying size (human T cells): did not stimulate T cell activation

KDKDKDKDKDKDKDKDKDKD [(K-D)10]
Abscess formation (%) (B. fragilis NCTC 9343; [1]): 60% | No. animals with abscess/total (B. fragilis NCTC 9343; [1]): 6/10

KDKDKDKDKDKDKDKDKDKDKDKDKDKDKD [(K-D)15]
Abscess formation (%) (B. fragilis NCTC 9343; [1]): 50% | No. animals with abscess/total (B. fragilis NCTC 9343; [1]): 5/10

KDKDKDKDKDKDKDKDKDKDKDKDKDKDKDKDKDKDKDKD [(K-D)20]
Abscess formation (%) (B. fragilis NCTC 9343; [1]): 10% | No. animals with abscess/total (B. fragilis NCTC 9343; [1]): 1/10

KDKDKDKDKDKDKDKDKDKDKDKDKDKDKDKDKDKDKDKDKDKDKDKDKD [(K-D)25]
Abscess formation (%) (B. fragilis NCTC 9343; [2]): 59% | No. animals with abscess/total (B. fragilis NCTC 9343; [2]): 10/17 | Abscess formation (%) (B. fragilis NCTC 9343; [3]): 17% | No. animals with abscess/total (B. fragilis NCTC 9343; [3]): 3/18 | Abscess formation (%) (B. fragilis NCTC 9343; [1]): 22% | No. animals with abscess/total (B. fragilis NCTC 9343; [1]): 2/9
